# Measurements published in publication PMC9911399, “Two distinct binding modes provide the RNA-binding protein RbFox with extraordinary sequence specificity”.
# Where a chain is given by its changes, count along the chain named. This is one part of the list.
# B1: GGAGUCU (DNA:RNA)
# RNA: GGGAGACCGGAAUUCAGAUUGUCCGGAGUCUUUAAAUCCCGUCGUAGCCACCA
# DNA 1: CAATCTGAATTCCGGTCTCCC
# DNA 2: TGGTGGCTACGACGGGATT
# B2: CCUUUCG (DNA:RNA)
# RNA: B1 RNA with G25C, G26C, A27U, G28U, U31G
# DNA 1: CAATCTGAATTCCGGTCTCCC
# DNA 2: TGGTGGCTACGACGGGATT
# B3: AUUCCAA (DNA:RNA)
# RNA: GGGAGACCGGAAUUCAGAUUGUCCAUUCCAAUUAAAUCCCGUCGUAGCCACCA
# DNA 1: CAATCTGAATTCCGGTCTCCC
# DNA 2: TGGTGGCTACGACGGGATT
# B4: CCUACAA (DNA:RNA)
# RNA: B3 RNA with A25C, U26C, C28A
# DNA 1: CAATCTGAATTCCGGTCTCCC
# DNA 2: TGGTGGCTACGACGGGATT
# B5: AUGCAGU (DNA:RNA)
# RNA: B3 RNA with U27G, C29A, A30G, A31U
# DNA 1: CAATCTGAATTCCGGTCTCCC
# DNA 2: TGGTGGCTACGACGGGATT
# B6: CGUGGUC (DNA:RNA)
# RNA: B1 RNA with G25C, A27U, U29G, C30U, U31C
# DNA 1: CAATCTGAATTCCGGTCTCCC
# DNA 2: TGGTGGCTACGACGGGATT
# B7: ACUCCGU (DNA:RNA)
# RNA: B3 RNA with U26C, A30G, A31U
# DNA 1: CAATCTGAATTCCGGTCTCCC
# DNA 2: TGGTGGCTACGACGGGATT
# B8: GGCUCAA (DNA:RNA)
# RNA: B3 RNA with A25G, U26G, U27C, C28U
# DNA 1: CAATCTGAATTCCGGTCTCCC
# DNA 2: TGGTGGCTACGACGGGATT
# B9: CCGGAUC (DNA:RNA)
# RNA: B1 RNA with G25C, G26C, A27G, U29A, C30U, U31C
# DNA 1: CAATCTGAATTCCGGTCTCCC
# DNA 2: TGGTGGCTACGACGGGATT
# B10: UCUGGAG (DNA:RNA)
# RNA: B3 RNA with A25U, U26C, C28G, C29G, A31G
# DNA 1: CAATCTGAATTCCGGTCTCCC
# DNA 2: TGGTGGCTACGACGGGATT
# B11: CCGGUAU (DNA:RNA)
# RNA: B1 RNA with G25C, G26C, A27G, C30A
# DNA 1: CAATCTGAATTCCGGTCTCCC
# DNA 2: TGGTGGCTACGACGGGATT
# B12: GUGAUAG (DNA:RNA)
# RNA: B3 RNA with A25G, U27G, C28A, C29U, A31G
# DNA 1: CAATCTGAATTCCGGTCTCCC
# DNA 2: TGGTGGCTACGACGGGATT
# B13: AUGAACC (DNA:RNA)
# RNA: B3 RNA with U27G, C28A, C29A, A30C, A31C
# DNA 1: CAATCTGAATTCCGGTCTCCC
# DNA 2: TGGTGGCTACGACGGGATT
# B14: AUUAGAA (DNA:RNA)
# RNA: B3 RNA with C28A, C29G
# DNA 1: CAATCTGAATTCCGGTCTCCC
# DNA 2: TGGTGGCTACGACGGGATT
# B15: CACAGAU (DNA:RNA)
# RNA: B3 RNA with A25C, U26A, U27C, C28A, C29G, A31U
# DNA 1: CAATCTGAATTCCGGTCTCCC
# DNA 2: TGGTGGCTACGACGGGATT
# B16: CCACAAC (DNA:RNA)
# RNA: B3 RNA with A25C, U26C, U27A, C29A, A31C
# DNA 1: CAATCTGAATTCCGGTCTCCC
# DNA 2: TGGTGGCTACGACGGGATT
# B17: UGAGACC (DNA:RNA)
# RNA: B1 RNA with G25U, U29A, U31C
# DNA 1: CAATCTGAATTCCGGTCTCCC
# DNA 2: TGGTGGCTACGACGGGATT
# B18: UCUUGGU (DNA:RNA)
# RNA: B3 RNA with A25U, U26C, C28U, C29G, A30G, A31U
# DNA 1: CAATCTGAATTCCGGTCTCCC
# DNA 2: TGGTGGCTACGACGGGATT
# B19: UCGAGGG (DNA:RNA)
# RNA: GGGAGACCGGAAUUCAGAUUGUCCUCGAGGGUUAAAUCCCGUCGUAGCCACCA
# DNA 1: CAATCTGAATTCCGGTCTCCC
# DNA 2: TGGTGGCTACGACGGGATT
# B20: AAUAGGC (DNA:RNA)
# RNA: B19 RNA with U25A, C26A, G27U, G31C
# DNA 1: CAATCTGAATTCCGGTCTCCC
# DNA 2: TGGTGGCTACGACGGGATT
# B21: CUGCCGG (DNA:RNA)
# RNA: B3 RNA with A25C, U27G, A30G, A31G
# DNA 1: CAATCTGAATTCCGGTCTCCC
# DNA 2: TGGTGGCTACGACGGGATT
# B22: AUGGACG (DNA:RNA)
# RNA: B3 RNA with U27G, C28G, C29A, A30C, A31G
# DNA 1: CAATCTGAATTCCGGTCTCCC
# DNA 2: TGGTGGCTACGACGGGATT
# B23: UUCACGC (DNA:RNA)
# RNA: B19 RNA with C26U, G27C, G29C, G31C
# DNA 1: CAATCTGAATTCCGGTCTCCC
# DNA 2: TGGTGGCTACGACGGGATT
# B24: ACGGCUG (DNA:RNA)
# RNA: B19 RNA with U25A, A28G, G29C, G30U
# DNA 1: CAATCTGAATTCCGGTCTCCC
# DNA 2: TGGTGGCTACGACGGGATT
# B25: UGUCGUU (DNA:RNA)
# RNA: B3 RNA with A25U, U26G, C29G, A30U, A31U
# DNA 1: CAATCTGAATTCCGGTCTCCC
# DNA 2: TGGTGGCTACGACGGGATT
# B26: ACUGCCG (DNA:RNA)
# RNA: B3 RNA with U26C, C28G, A30C, A31G
# DNA 1: CAATCTGAATTCCGGTCTCCC
# DNA 2: TGGTGGCTACGACGGGATT
# B27: UGGACUU (DNA:RNA)
# RNA: B19 RNA with C26G, G29C, G30U, G31U
# DNA 1: CAATCTGAATTCCGGTCTCCC
# DNA 2: TGGTGGCTACGACGGGATT
# B28: GACAAGG (DNA:RNA)
# RNA: B19 RNA with U25G, C26A, G27C, G29A
# DNA 1: CAATCTGAATTCCGGTCTCCC
# DNA 2: TGGTGGCTACGACGGGATT
# B29: CGGCGGG (DNA:RNA)
# RNA: B19 RNA with U25C, C26G, A28C
# DNA 1: CAATCTGAATTCCGGTCTCCC
# DNA 2: TGGTGGCTACGACGGGATT
# B30: CGACGGC (DNA:RNA)
# RNA: B1 RNA with G25C, G28C, U29G, C30G, U31C
# DNA 1: CAATCTGAATTCCGGTCTCCC
# DNA 2: TGGTGGCTACGACGGGATT
# B31: AAAGUGU (DNA:RNA)
# RNA: B1 RNA with G25A, G26A, C30G
# DNA 1: CAATCTGAATTCCGGTCTCCC
# DNA 2: TGGTGGCTACGACGGGATT
# Molecular target: T1, RBFOX1 RRM (Homo sapiens, UniProt Q9NWB1 109-208)
# T1 sequence: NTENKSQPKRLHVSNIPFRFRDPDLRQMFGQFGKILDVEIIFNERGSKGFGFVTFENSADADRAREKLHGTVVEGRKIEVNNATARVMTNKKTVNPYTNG
# Assay: EMSA; HiTS-Eq, 1 nM pool, 10 min; buffer printed only for the single-RNA assays: 10 mM Tris pH 7.5, 150 mM NaCl, 3.4 mM EDTA, 0.001% NP-40, 30 C
# Details: tags: His6 N-terminal (pET28a); label: 5' 32P
# Method in brief: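 A pool of RNA with 7 randomized nucleotides, 5′-radiolabelled and with DNA-annealed flanks, was equilibrated at 1 nM for 10 min in 50 µL with purified RbFox RRM, wild type or mutant, across increasing protein concentrations. Free RNA was separated by 8% native PAGE, excised, reverse-transcribed, barcoded by PCR and sequenced. Relative association constants were obtained from read-count changes of each RNA species versus the control reaction and normalised to the cognate motif.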
row,Binder,binding signal
1,B1,0.0284 KA relative to UGCAUGU
2,B2,0.0156 KA relative to UGCAUGU
3,B3,0.00175 KA relative to UGCAUGU
4,B4,0.00268 KA relative to UGCAUGU
5,B5,0.00999 KA relative to UGCAUGU
6,B6,0.017 KA relative to UGCAUGU
7,B7,0.00461 KA relative to UGCAUGU
8,B8,0.00157 KA relative to UGCAUGU
9,B9,0.0104 KA relative to UGCAUGU
10,B10,0.00377 KA relative to UGCAUGU
11,B11,0.00696 KA relative to UGCAUGU
12,B12,0.0184 KA relative to UGCAUGU
13,B13,0.00862 KA relative to UGCAUGU
14,B14,0.006 KA relative to UGCAUGU
15,B15,0.00201 KA relative to UGCAUGU
16,B16,0.00168 KA relative to UGCAUGU

row,Binder,binding signal
1,B17,0.00997 KA relative to UGCAUGU
2,B18,0.0216 KA relative to UGCAUGU
3,B19,0.0103 KA relative to UGCAUGU
4,B20,0.00524 KA relative to UGCAUGU
5,B21,0.0156 KA relative to UGCAUGU
6,B22,0.0115 KA relative to UGCAUGU
7,B23,0.0066 KA relative to UGCAUGU
8,B24,0.0167 KA relative to UGCAUGU
9,B25,0.021 KA relative to UGCAUGU
10,B26,0.0125 KA relative to UGCAUGU
11,B27,0.0249 KA relative to UGCAUGU
12,B28,0.0103 KA relative to UGCAUGU
13,B29,0.00981 KA relative to UGCAUGU
14,B30,0.0116 KA relative to UGCAUGU
15,B31,0.00643 KA relative to UGCAUGU
